Hit rate of the full screen: of about 420,000 compounds, about 50,000 (12%) were called active. This list was built around the results that the source calls inconclusive (neither active nor inactive); the mix of calls is not that of the screen. Calls come from the whole dose curve; as a rule, active = well fitted inhibition curve with a large enough effect; inconclusive = small, poorly fitted or top-dose-only effect; inactive = flat fitted curve, though single readings scatter. Potencies of inconclusive entries are left out as doubtful fits.
Assay: qHTS for Inhibitors of human tyrosyl-DNA phosphodiesterase 1 (TDP1): qHTS in cells in presence of CPT; note: nearly all actives have a fitted effect of over 55% in size
Settings: chicken DT40 Tdp1-/-;hTDP1 cells + 20 nM CPT, ATP luminescence, 48 h; activity change, negative = growth inhibition: at 46.2 µM (top of the series) unless noted
Method in brief: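 Chicken DT40 Tdp1-/- cells stably complemented with human TDP1 were seeded at 400 cells/well in medium containing 20 nM camptothecin, exposed to pin-transferred compounds, and grown at 37 °C for at least 48 hr. Viability was read as ATP luminescence.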
With `CC(=O)c1nn(-c2cccc(Br)c2)cc1C(=O)c1ccco1` the “activity change, negative = growth inhibition” value was inactive: 0.15%. With `CCN(CC)S(=O)(=O)c1ccc(C)c(NC(=O)Cc2ccc(S(=O)(=O)N3CCOCC3)s2)c1` the Potency was inconclusive [inhibitor, partial curve]. With `CCc1ccccc1NC(=O)Cn1nc(C(F)(F)F)c2c1CCC2` the Potency was “inactive”. With `Cc1cc(C(=O)NC(C)CCc2ccccc2)ccc1[N+](=O)[O-]` (centres undefined) the “activity change, negative = growth inhibition” value was inactive: 19.8%. With `CC1(C(=O)NS(=O)(=O)C2CC2)CCCN(C(=O)COc2ccccc2)C1` (centres undefined) the Potency was inconclusive [inhibitor, single point]. With `CC(C)CCn1c(Sc2nc3ccccc3s2)nc2c1c(=O)[nH]c(=O)n2C` the Potency was inconclusive [inhibitor, single point]. In the case of `Cc1cccc(-c2noc(CN(C(=O)c3ccc(Br)o3)C(C)C)n2)c1`, the Potency is reported as inconclusive [inhibitor, single point]. For `CC(C)(C)OC(=O)CNC(=O)c1[nH]cnc1C(=O)N[C@@H](Cc1ccccc1)C(=O)OC(C)(C)C`, the Potency was inconclusive [inhibitor, single point]. In the case of `COc1cc(NC(=O)c2cc3nc(-c4ccccc4)cc(-c4ccccc4)n3n2)cc(OC)c1OC`, the Potency is reported as inconclusive [inhibitor, partial curve, poor fit]. In the case of `COc1ccc(C(=O)NCCc2c[nH]c3ccccc23)cc1S(=O)(=O)N1CCCCC1C` (centres undefined), the Potency is reported as inconclusive [inhibitor, single point]. With `CCc1nn(CC(=O)Nc2cccc(C(C)=O)c2)c(=O)c2cc3sccc3n12` the Potency was active: 18.4 µM. With `CCS(=O)(=O)c1ncc(Cl)c(C(=O)NCc2ccc(OC)cc2)n1` the Potency was active: 1.64 µM. For `CC(C)(C)c1ccc(C(=O)CS(=O)(=O)c2ccccc2)cc1`, the Potency was inconclusive [inhibitor, single point]. In the case of `Cc1ccc(Cl)cc1NC(=O)C1CCCN(c2cnccn2)C1` (centres undefined), the Potency is reported as inconclusive [inhibitor, single point]. With `O=C(CCn1c(=O)c2ccccc2n(Cc2cccc(Cl)c2)c1=O)NCCc1ccccc1` the Potency was inconclusive [inhibitor, single point]. For `Cc1ccc(C2(C)NC(=O)N(CC(=O)N3CCN(S(=O)(=O)c4cccc(F)c4)CC3)C2=O)cc1` (centres undefined), the “activity change, negative = growth inhibition” value was inactive: -6.81%. In the case of `O=C(c1ccc([N+](=O)[O-])cc1)N1CCSC1c1cccc(Cl)c1` (centres undefined), the “activity change, negative = growth inhibition” value is reported as inactive: -10.6%. With `Cc1cccc(Oc2ncc(-c3ccc(Cl)cc3)cn2)c1C` the Potency was inconclusive [inhibitor, partial curve]. In the case of `CN(c1ccccc1C(=O)O)S(=O)(=O)c1ccc2[nH]c(=O)oc2c1`, the “activity change, negative = growth inhibition” value is reported as inactive: -3.4%. In the case of `COc1ccc(NC(=O)c2cccnc2NCCc2ccccc2)cc1`, the Potency is reported as active: 20.6 µM. For `Cc1ccc(S(=O)(=O)N2[C@@H](c3ccc(Br)cc3)C(C(=O)O)=CC[C@H]2c2ccc(Cl)cc2)cc1`, the Potency was inconclusive [inhibitor, single point]. For `Cc1ccc(S(=O)(=O)N2CCN(C(=O)N3CCCCC3)CC2)c(C)c1`, the Potency was inconclusive [inhibitor, single point]. For `CCOC(=O)c1ccccc1NC(=O)Cn1c(=O)n(Cc2nc(C)no2)c(=O)c2ccccc21`, the Potency was inconclusive [inhibitor, single point]. With `C=CCOc1ccc(/C(CC)=N/O)cc1OC` the Potency was inconclusive [inhibitor, single point]. With `COc1cccc(CNc2ccccc2O)c1OCc1ccccc1F` the Potency was active: 23.1 µM. For `CCN(CC)C(=O)CSc1nnc(CCCCCNC(=O)OC(C)(C)C)o1`, the “activity change, negative = growth inhibition” value was inactive: -8.83%. For `CCn1nc(NS(=O)(=O)c2ccc(NC(C)=O)cc2)c2cc3ccccc3nc21`, the Potency was inconclusive [inhibitor, single point]. With `Oc1c(C(Nc2ccccn2)c2cccnc2)cc(Cl)c2cccnc12` (centres undefined) the Potency was active: 4.61 µM. For `Cc1ccccc1Oc1ccc2c(c1)[C@@H]1C[C@H](N(C)C(=O)c3ccco3)[C@H]([C@H](C)O)C(=O)N1CC2`, the Potency was inconclusive [inhibitor, single point]. With `Cc1ccnc(N=O)c1` the “activity change, negative = growth inhibition” value was inactive: -12.8%. In the case of `Cc1cccc(C2c3[nH]c4ccccc4c3CCN2C(=O)c2cc(-c3cccn3C)n[nH]2)n1` (centres undefined), the Potency is reported as inconclusive [inhibitor, single point]. In the case of `COc1ccc(C(=O)N2CCN(c3nc4c(C)c(Cl)ccc4s3)CC2)c(OC)c1`, the Potency is reported as active: 16.4 µM. For `CN1CCN(S(=O)(=O)c2cccc(C(=O)Nc3nc(-c4ccccc4)cs3)c2)CC1`, the Potency was inconclusive [inhibitor, single point]. For `CCOc1ccc(NC(=O)CN(C)S(=O)(=O)c2ccc3[nH]c4c(c3c2)CCCC4)cc1`, the Potency was inconclusive [inhibitor, single point]. For `COc1cc(NC(=S)NCCC(c2ccccc2)c2ccccc2)cc(OC)c1`, the Potency was inconclusive [inhibitor, partial curve, poor fit]. For `CC1CCCC(NC(=O)CSc2nnc(-c3cccnc3)n2N)C1C` (centres undefined), the “activity change, negative = growth inhibition” value was inactive: 1.23%. For `O=C(OCc1cccc(F)c1)c1cc2ccccc2cc1O`, the “activity change, negative = growth inhibition” value was inactive: 9.18%. In the case of `Cc1c(C(=O)Nc2ccc(-c3nnc4n3CCCCC4)cc2)oc2ccc(Br)cc12`, the Potency is reported as inconclusive [inhibitor, single point]. For `CCOC(=O)[C@]12CCCC=C1N(Cc1ccco1)C(=O)[C@H](CC(=O)NCc1cccc(C(F)(F)F)c1)C2`, the Potency was inconclusive [inhibitor, single point]. In the case of `CC(=O)Nc1cccc(-c2ccnc3c2CC(C(=O)NCc2ccc(F)c(F)c2)O3)c1` (centres undefined), the Potency is reported as active: 3.26 µM. With `COc1ccc(S(=O)(=O)N(CC(=O)NC2CCCC2)c2ccccc2OC)cc1` the Potency was inconclusive [inhibitor, single point]. In the case of `COc1ccc(CCNC(=O)COC(=O)/C=C/c2cccs2)cc1`, the “activity change, negative = growth inhibition” value is reported as inactive: 4.4%. With `Cc1cc(C)n(-c2nc3ccccc3nc2N2CCN(S(=O)(=O)c3ccc(F)c(C)c3)CC2)n1` the Potency was active: 23.1 µM. With `Cc1cc(NC(=O)COc2ccc([N+](=O)[O-])cc2)no1` the “activity change, negative = growth inhibition” value was inactive: 1%.

Reference: PubChem BioAssay AID686979 (National Center for Advancing Translational Sciences (NCATS), 2013)
% is set by controls: 0 for no effect and ±100 for the full control effect; potency is the fitted concentration of half-maximal effect; tags give direction and shape of the fitted curve.
